Test results from article PMC6212790.
Some of the results follow. At the low end of the ranking, values are background and their order means little.

Target: T1, GST-Rok (full length) (UniProt O34857)
T1 sequence: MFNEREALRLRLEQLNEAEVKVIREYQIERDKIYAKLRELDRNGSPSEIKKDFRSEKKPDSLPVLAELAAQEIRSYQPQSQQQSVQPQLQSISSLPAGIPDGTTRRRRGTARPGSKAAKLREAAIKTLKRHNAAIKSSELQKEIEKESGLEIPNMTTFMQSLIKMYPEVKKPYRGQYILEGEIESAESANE
Experiment: protein binding microarray;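 note: rank score from −0.5 (least bound) to 0.5 (best bound)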
Conditions: Rok is a gene silencer of Bacillus subtilis; high values mean tight binding; most listed sequences are background and not binding sites; double strand, one strand shown

Sequence | binding signal [E-score]
CATGGCGC | -0.242
ACGTCGCC | 0.0709
GGTCAGGA | -0.235
AATAATAT | 0.311
CCCTACGC | -0.256
ACAGACGC | 0.0405
ACGGAGTG | -0.198
CATGTAGA | 0.374
GGCAGTTA | 0.091
GTGTGAAC | 0.0663
ATGACTGG | -0.0372
GCCCTTAA | -0.156
AAAATGGG | 0.121
ATGCAACG | 0.0719
CTTAAAAG | -0.119
TGACTCAA | -0.0649
AGTGAAAT | 0.0768
ATAGAGTA | 0.197
CGGGGCTC | -0.363
GTGAGTTA | 0.16
TATAAGCA | 0.171
AATTATCT | 0.306
ATAGAGAA | 0.227
CAAGGGCA | -0.319
TAAGGTAA | 0.0381

Sequence | binding signal [E-score]
CCGTCGCG | -0.251
CCGGTCGC | -0.409
TGCCACAA | -0.0807
AAATAGAA | 0.368
CCAAGCAG | -0.171
ATCGTTTC | 0.14
CTCTGCAC | -0.243
GTTAACAA | 0.216
AGCCAAAG | -0.285
CTGTCCGC | -0.225
CCCGAAGA | -0.0531
AGCGGCCC | -0.32
ACTGCATG | 0.0229
CAAAACTG | -0.0906
CTATTATC | 0.214
CCAACAGG | -0.215
TGAGGGAA | -0.0338
CTTTCGTA | -0.0127
AGGAAAAC | -0.114
GCCCGCGA | -0.235
ATAATGTG | 0.201
AAGGCCGG | -0.202
GAGCGGGC | -0.308
CTACAACA | 0.343
AGTCCAAG | 0.00586

Sequence | binding signal [E-score]
ATCTGATC | 0.00876
GGTGCCTA | -0.273
CGCTTCAA | 0.00795
GACCAACC | -0.00371
AAGAGCGC | -0.164
AAGCGGGT | -0.204
AAGGGATC | -0.218
GAGTATCC | -0.139
GTGTACAA | 0.167
GGTCTATA | 0.0291
ACTAAACC | -0.0253
ATCGTACA | 0.272
ATGCAAAT | 0.202
CCCCTTAG | -0.286
AGCGCTGG | -0.124
GAGCCCAC | -0.301
TCGCTACA | -0.09
TACTGCTA | 0.25
CATGATAG | 0.176
ACCAGCCA | -0.266
CTACACAA | 0.209
CTCTCTTC | -0.27
ACCGAAAC | 0.0496
TGCCGCAA | -0.0797
ACAACTGA | 0.0465

Sequence | binding signal [E-score]
AGTTACGC | 0.18
CAACAAAA | 0.0676
AAGAACGT | -0.0168
AGGCAAAC | -0.0904
GTGAAGTA | 0.0953
AAGCCTCC | -0.366
CAGCACTG | -0.17
GCGCATGA | -0.111
GACCATAC | 0.04
GAAATGCC | -0.299
ATCACTTC | 0.0831
ACGAATGC | -0.0897
CGGTACTA | 0.298
CACTATGA | 0.114
GGACGACA | -0.111
AGCTTTCA | -0.2
ACTCATCC | 0.074
AGGACTGC | -0.173
AATGCATA | 0.152
CACATGCG | -0.129
CAGGCGAC | 0.0107
TAGATGAA | 0.262
CGATACAC | 0.175
TCATAGAA | -0.0162
ACATAGTC | 0.114

Sequence | binding signal [E-score]
CTCCTAGC | -0.141
ATTTTAAG | 0.167
AACATGTC | -0.00301
ATATCAAG | 0.175
GCGAACAC | -0.111
ACAAGTAA | 0.185
TCAAGACA | -0.127
CACGGGGG | -0.386
ATCGCCGC | 0.0256
TGCCACCA | -0.138
ATCTTGCG | -0.121
GCCGACGC | -0.193
ACAGGTTA | 0.144
CCGGTAGC | 0.184
GTAATTTA | 0.355
AATACTCT | 0.11
AGAAAATA | 0.328
GGAGCTCA | -0.164
AACGTGAC | -0.00743
CTGTCGAC | -0.0113
TGAATCCA | -0.0708
CTGTCCCC | -0.157
GTCGTGCA | -0.0147
CTCTGAAG | -0.245
AGTTATAC | 0.329

Sequence | binding signal [E-score]
ATAAGAGA | -0.0183
AGCATCTC | -0.022
AAACCGCC | -0.327
ACAGGTGA | 0.0837
GCGTCCAA | 0.0719
GAGGGATC | -0.26
AAAAGAAC | -0.132
CTGGGTGA | -0.274
CGGACCAC | -0.286
CGTACTAG | 0.0856
ATCCTCGG | -0.218
ATACATGA | 0.294
ACCAAAGG | -0.0942
CTGCCTCC | -0.404
ACGAGTAG | -0.0634
AAATGGCT | -0.116
ATCACGCC | -0.203
AGACCGTG | -0.0895
GTAGGAGA | 0.0173
CTGCGGGC | -0.298
GCCTCCGA | -0.337
ACCTAGGA | 0.0434
GTCAATGA | -0.0227
GCATACAC | 0.107
ACAGTGCT | -0.243

Sequence | binding signal [E-score]
AATCGTGA | -0.0107
TATACCCA | 0.279
TAACTGTA | 0.303
CAGTTAAC | 0.119
ATTCCGCC | -0.297
CGTTAAAC | 0.0818
CCCACGAG | -0.11
AGAACGCT | 0.188
GTCATCAA | -0.111
CACACGGG | -0.249
GCGGCCAC | -0.296
CAGCAGAG | -0.304
CCTTGTAG | -0.124
CGTATGTC | -0.0443
ACCTCAAG | 0.0188
AGCCTAGA | -0.106
ACTGGCAA | -0.106
GGCTACAA | 0.0236
ATAGCAAT | 0.298
GCGCACAC | -0.224
CCTATAAC | 0.226
CACAGAAC | -0.0713
